± gives the standard deviation of the averaged measurements. Laboratory Escherichia coli strains with one amino-acid change in an essential protein, pooled on minimal glucose agar with carbenicillin or gentamicin at twice the control MIC (plus kanamycin and chloramphenicol for the plasmids), 48 h. Fold change of barcode share against drug-free plates; higher = less susceptible. Active = above 20 in both replicates (the paper's putatively resistant). '<' = one read or none on drug, '>' = one read or none on a drug-free plate. Shares are relative, so most strains fall below 1 when a few take over. Listed are strains with at least 15 reads on both drug-free plates, and hits; most hits rest on fewer reference reads. Replicate rank correlation about 0.5. Edits are read from barcodes.
Target: Escherichia coli (laboratory strain)
Experiment: barcode share on antibiotic plates over drug-free plates; higher = less susceptible
Procedure: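 A pool of E. coli strains, each edited to carry one amino-acid change in an essential protein, was grown for 48 h on minimal glucose agar with or without antibiotic; strain barcodes were sequenced; mean of two replicates.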

[1] = antibiotic: carbenicillin, 2× MIC (3.1 µg/mL)
[2] = antibiotic: gentamicin, 2× MIC (MIC 0.45 µg/mL)

B1: lolE V40Q (protein)
chain: MAMPLSLLIGLRFSRGRRRGGMVSLISVISTIGIALGVAQLIVGLSAMNGFERELNNRILAVVPHGEIEAVDQPWTNWQEALDHVQKVPGIAAAAPYINFTGLVESGANLRAIQVKGVNPQQEQRLSALPSFVQGDAWRNFKAGEQQIIIGKGVADALKVKQGDWVSIMIPNSNPEHKLMQPKRVRLHVAGILQLSGQLDHSFAMIPLADAQQYLDMGSSVSGIALKMTDVFNANKLVRDAGEVTNSYVYIKSWIGTYGYMYRDIQMIRAIMYLAMVLVIGVACFNIVSTLVMAVKDKSGDIAVLRTLGAKDGLIRAIFVWYGLLAGLFGSLCGVIIGVVVSLQLTPIIEWIEKLIGHQFLSSDIYFIDFLPSELHWLDVFYVLVTALLLSLLASWYPARRASNIDPARVLSGQ
[1]
  fold change of barcode share: 0.258 ± 0.16
[2]
  fold change of barcode share: < 0.013

B2: lolE L193P (protein)
chain: MAMPLSLLIGLRFSRGRRRGGMVSLISVISTIGIALGVAVLIVGLSAMNGFERELNNRILAVVPHGEIEAVDQPWTNWQEALDHVQKVPGIAAAAPYINFTGLVESGANLRAIQVKGVNPQQEQRLSALPSFVQGDAWRNFKAGEQQIIIGKGVADALKVKQGDWVSIMIPNSNPEHKLMQPKRVRLHVAGIPQLSGQLDHSFAMIPLADAQQYLDMGSSVSGIALKMTDVFNANKLVRDAGEVTNSYVYIKSWIGTYGYMYRDIQMIRAIMYLAMVLVIGVACFNIVSTLVMAVKDKSGDIAVLRTLGAKDGLIRAIFVWYGLLAGLFGSLCGVIIGVVVSLQLTPIIEWIEKLIGHQFLSSDIYFIDFLPSELHWLDVFYVLVTALLLSLLASWYPARRASNIDPARVLSGQ
[1]
  fold change of barcode share: 0.208 ± 0.039
[2]
  fold change of barcode share: < 0.0125

B3: lolE V292A (protein)
chain: MAMPLSLLIGLRFSRGRRRGGMVSLISVISTIGIALGVAVLIVGLSAMNGFERELNNRILAVVPHGEIEAVDQPWTNWQEALDHVQKVPGIAAAAPYINFTGLVESGANLRAIQVKGVNPQQEQRLSALPSFVQGDAWRNFKAGEQQIIIGKGVADALKVKQGDWVSIMIPNSNPEHKLMQPKRVRLHVAGILQLSGQLDHSFAMIPLADAQQYLDMGSSVSGIALKMTDVFNANKLVRDAGEVTNSYVYIKSWIGTYGYMYRDIQMIRAIMYLAMVLVIGVACFNIVSTLAMAVKDKSGDIAVLRTLGAKDGLIRAIFVWYGLLAGLFGSLCGVIIGVVVSLQLTPIIEWIEKLIGHQFLSSDIYFIDFLPSELHWLDVFYVLVTALLLSLLASWYPARRASNIDPARVLSGQ
[1]
  fold change of barcode share: 0.21 ± 0.12
[2]
  fold change of barcode share: < 0.0105

B4: lolE L193D (protein)
chain: MAMPLSLLIGLRFSRGRRRGGMVSLISVISTIGIALGVAVLIVGLSAMNGFERELNNRILAVVPHGEIEAVDQPWTNWQEALDHVQKVPGIAAAAPYINFTGLVESGANLRAIQVKGVNPQQEQRLSALPSFVQGDAWRNFKAGEQQIIIGKGVADALKVKQGDWVSIMIPNSNPEHKLMQPKRVRLHVAGIDQLSGQLDHSFAMIPLADAQQYLDMGSSVSGIALKMTDVFNANKLVRDAGEVTNSYVYIKSWIGTYGYMYRDIQMIRAIMYLAMVLVIGVACFNIVSTLVMAVKDKSGDIAVLRTLGAKDGLIRAIFVWYGLLAGLFGSLCGVIIGVVVSLQLTPIIEWIEKLIGHQFLSSDIYFIDFLPSELHWLDVFYVLVTALLLSLLASWYPARRASNIDPARVLSGQ
[1]
  fold change of barcode share: 0.281 ± 0.042
[2]
  fold change of barcode share: < 0.0114

B5: lolE V292W (protein)
chain: MAMPLSLLIGLRFSRGRRRGGMVSLISVISTIGIALGVAVLIVGLSAMNGFERELNNRILAVVPHGEIEAVDQPWTNWQEALDHVQKVPGIAAAAPYINFTGLVESGANLRAIQVKGVNPQQEQRLSALPSFVQGDAWRNFKAGEQQIIIGKGVADALKVKQGDWVSIMIPNSNPEHKLMQPKRVRLHVAGILQLSGQLDHSFAMIPLADAQQYLDMGSSVSGIALKMTDVFNANKLVRDAGEVTNSYVYIKSWIGTYGYMYRDIQMIRAIMYLAMVLVIGVACFNIVSTLWMAVKDKSGDIAVLRTLGAKDGLIRAIFVWYGLLAGLFGSLCGVIIGVVVSLQLTPIIEWIEKLIGHQFLSSDIYFIDFLPSELHWLDVFYVLVTALLLSLLASWYPARRASNIDPARVLSGQ
[1]
  fold change of barcode share: 0.231 ± 0.088
[2]
  fold change of barcode share: < 0.0102

B6: lolE L193Q (protein)
chain: MAMPLSLLIGLRFSRGRRRGGMVSLISVISTIGIALGVAVLIVGLSAMNGFERELNNRILAVVPHGEIEAVDQPWTNWQEALDHVQKVPGIAAAAPYINFTGLVESGANLRAIQVKGVNPQQEQRLSALPSFVQGDAWRNFKAGEQQIIIGKGVADALKVKQGDWVSIMIPNSNPEHKLMQPKRVRLHVAGIQQLSGQLDHSFAMIPLADAQQYLDMGSSVSGIALKMTDVFNANKLVRDAGEVTNSYVYIKSWIGTYGYMYRDIQMIRAIMYLAMVLVIGVACFNIVSTLVMAVKDKSGDIAVLRTLGAKDGLIRAIFVWYGLLAGLFGSLCGVIIGVVVSLQLTPIIEWIEKLIGHQFLSSDIYFIDFLPSELHWLDVFYVLVTALLLSLLASWYPARRASNIDPARVLSGQ
[1]
  fold change of barcode share: 0.164 ± 0.098
[2]
  fold change of barcode share: < 0.016

B7: lolE L193W (protein)
chain: MAMPLSLLIGLRFSRGRRRGGMVSLISVISTIGIALGVAVLIVGLSAMNGFERELNNRILAVVPHGEIEAVDQPWTNWQEALDHVQKVPGIAAAAPYINFTGLVESGANLRAIQVKGVNPQQEQRLSALPSFVQGDAWRNFKAGEQQIIIGKGVADALKVKQGDWVSIMIPNSNPEHKLMQPKRVRLHVAGIWQLSGQLDHSFAMIPLADAQQYLDMGSSVSGIALKMTDVFNANKLVRDAGEVTNSYVYIKSWIGTYGYMYRDIQMIRAIMYLAMVLVIGVACFNIVSTLVMAVKDKSGDIAVLRTLGAKDGLIRAIFVWYGLLAGLFGSLCGVIIGVVVSLQLTPIIEWIEKLIGHQFLSSDIYFIDFLPSELHWLDVFYVLVTALLLSLLASWYPARRASNIDPARVLSGQ
[1]
  fold change of barcode share: 0.301 ± 0.12
[2]
  fold change of barcode share: < 0.0061

B8: lolE L193A (protein)
chain: MAMPLSLLIGLRFSRGRRRGGMVSLISVISTIGIALGVAVLIVGLSAMNGFERELNNRILAVVPHGEIEAVDQPWTNWQEALDHVQKVPGIAAAAPYINFTGLVESGANLRAIQVKGVNPQQEQRLSALPSFVQGDAWRNFKAGEQQIIIGKGVADALKVKQGDWVSIMIPNSNPEHKLMQPKRVRLHVAGIAQLSGQLDHSFAMIPLADAQQYLDMGSSVSGIALKMTDVFNANKLVRDAGEVTNSYVYIKSWIGTYGYMYRDIQMIRAIMYLAMVLVIGVACFNIVSTLVMAVKDKSGDIAVLRTLGAKDGLIRAIFVWYGLLAGLFGSLCGVIIGVVVSLQLTPIIEWIEKLIGHQFLSSDIYFIDFLPSELHWLDVFYVLVTALLLSLLASWYPARRASNIDPARVLSGQ
[1]
  fold change of barcode share: 0.233 ± 0.15
[2]
  fold change of barcode share: 0.0172 ± 0.0015

B9: lolD L52Q (protein)
chain: MNKILLQCDNLCKRYQEGSVQTDVLHNVSFSVGEGEMMAIVGSSGSGKSTLQHLLGGLDTPTSGDVIFNGQPMSKLSSAAKAELRNQKLGFIYQFHHLLPDFTALENVAMPLLIGKKKPAEINSRALEMLKAVGLDHRANHRPSELSGGERQRVAIARALVNNPRLVLADEPTGNLDARNADSIFQLLGELNRLQGTAFLVVTHDLQLAKRMSRQLEMRDGRLTAELSLMGAE
[1]
  fold change of barcode share: 0.154 ± 0.0074
[2]
  fold change of barcode share: 0.0231 ± 0.023

B10: lolD L54Q (protein)
chain: MNKILLQCDNLCKRYQEGSVQTDVLHNVSFSVGEGEMMAIVGSSGSGKSTLLHQLGGLDTPTSGDVIFNGQPMSKLSSAAKAELRNQKLGFIYQFHHLLPDFTALENVAMPLLIGKKKPAEINSRALEMLKAVGLDHRANHRPSELSGGERQRVAIARALVNNPRLVLADEPTGNLDARNADSIFQLLGELNRLQGTAFLVVTHDLQLAKRMSRQLEMRDGRLTAELSLMGAE
[1]
  fold change of barcode share: 0.159 ± 0.048
[2]
  fold change of barcode share: < 0.00764

B11: lolD L54A (protein)
chain: MNKILLQCDNLCKRYQEGSVQTDVLHNVSFSVGEGEMMAIVGSSGSGKSTLLHALGGLDTPTSGDVIFNGQPMSKLSSAAKAELRNQKLGFIYQFHHLLPDFTALENVAMPLLIGKKKPAEINSRALEMLKAVGLDHRANHRPSELSGGERQRVAIARALVNNPRLVLADEPTGNLDARNADSIFQLLGELNRLQGTAFLVVTHDLQLAKRMSRQLEMRDGRLTAELSLMGAE
[1]
  fold change of barcode share: 0.519 ± 0.0078
[2]
  fold change of barcode share: < 0.0132

B12: lolD L52P (protein)
chain: MNKILLQCDNLCKRYQEGSVQTDVLHNVSFSVGEGEMMAIVGSSGSGKSTLPHLLGGLDTPTSGDVIFNGQPMSKLSSAAKAELRNQKLGFIYQFHHLLPDFTALENVAMPLLIGKKKPAEINSRALEMLKAVGLDHRANHRPSELSGGERQRVAIARALVNNPRLVLADEPTGNLDARNADSIFQLLGELNRLQGTAFLVVTHDLQLAKRMSRQLEMRDGRLTAELSLMGAE
[1]
  fold change of barcode share: 0.305 ± 0.021
[2]
  fold change of barcode share: < 0.00569

B13: lolD L54P (protein)
chain: MNKILLQCDNLCKRYQEGSVQTDVLHNVSFSVGEGEMMAIVGSSGSGKSTLLHPLGGLDTPTSGDVIFNGQPMSKLSSAAKAELRNQKLGFIYQFHHLLPDFTALENVAMPLLIGKKKPAEINSRALEMLKAVGLDHRANHRPSELSGGERQRVAIARALVNNPRLVLADEPTGNLDARNADSIFQLLGELNRLQGTAFLVVTHDLQLAKRMSRQLEMRDGRLTAELSLMGAE
[1]
  fold change of barcode share: 0.204 ± 0.25
[2]
  fold change of barcode share: < 0.0149

B14: aroC V339A (protein)
chain: MAGNTIGQLFRVTTFGESHGLALGCIVDGVPPGIPLTEADLQHDLDRRRPGTSRYTTQRREPDQVKILSGVFEGVTTGTSIGLLIENTDQRSQDYSAIKDVFRPGHADYTYEQKYGLRDYRGGGRSSARETAMRVAAGAIAKKYLAEKFGIEIRGCLTQMGDIPLDIKDWSQVEQNPFFCPDPDKIDALDELMRALKKEGDSIGAKVTVVASGVPAGLGEPVFDRLDADIAHALMSINAVKGVEIGDGFDVVALRGSQNRDEITKDGFQSNHAGGILGGISSGQQIIAHMALKPTSSITVPGRTINRFGEEVEMITKGRHDPCVGIRAVPIAEAMLAIALMDHLLRQRAQNADVKTDIPRW
[1]
  fold change of barcode share: 0.202 ± 0.053
[2]
  fold change of barcode share: 0.984 ± 1.4
